{"source": "patent US20250000991A1", "about": "“NECTIN-4 ANTIBODIES AND ANTIBODY-DRUG CONJUGATES” (Eli Lilly and Company, priority 2023, published 2025)", "molecules": {"B1": {"name": "Ab2 ADC: Ab2 conjugated as in Formula XI, and with a DAR of 8 (conjugate)", "heavy": "EVQLVESGGGLVQPGGSLRLSCAASGFTFSSYDMHWVRQATGKGLEWVSAIGTVGDTYYPGSVKGRFTISRENAKNSLYLQMNSLRAGDTAVYYCAREWNGMDVWGQGTTVTVSSASTKGPSVFPLAPSSKSTSGGTAALGCLVKDYFPEPVTVSWNSGALTSGVHTFPAVLQSSGLYSLSSVVTVPSSSLGTQTYICNVNHKPSNTKVDKRVEPKSCDKTHTCPPCPAPEAAGGPSVFLFPPKPKDTLMISRTPEVTCVVVSVSHEDPEVKFNWYVDGVEVHNAKTKPREEQYNSTYRVVSVLTVLHQDWLNGKEYKCKVSNKALPAPIEKTISKAKGQPREPQVYTLPPSREEMTKNQVSLTCLVKGFYPSDIAVEWESNGQPENNYKTTPPVLDSDGSFFLYSKLTVDKSRWQQGNVFSCSVMHEALHNHYTQKSLSLSPGK", "light": "DIVMTQSPDSLAVSLGERATINCKSSQSVLYNSNNKNYLAWYQQKPGQPPKLLIYWASTRESGVPDRFSGSGSGTDFTLTISSLQAEDVAVYYCQQFYTTPYSFGQGTKVEIKRTVAAPSVFIFPPSDEQLKSGTASVVCLLNNFYPREAKVQWKVDNALQSGNSQESVTEQDSKDSTYSLSSTLTLSKADYEKHKVYACEVTHQGLSSPVTKSFNRGEC"}}, "key": {"[1]": {"system": "UM-UC-3 Nectin4 clone F7 xenograft", "test": "Tumor xenograft, high nectin-4 expression", "assay_type": "in vivo, mice (nu/nu)", "details": "UMUC3 Nectin-4 clone F7 xenograft, single dose 2 mg/kg, day 40", "protocol": "In order to test the efficacy of the nectin-4 ADCs of the present disclosure, which have effector null mutations in the Fc region, and to compare to the enfortumab antibody, which has wildtype Fc and in an ADC with the same payload background as the ones of this disclosure, two tumor xenograft models with either high or moderate nectin-4 expression were tested as described. Immune compromised female mice (nu/nu) between 5-8 weeks of age with weight 18-20 grams were implanted unilaterally on the right flank with UM-UC-3 Nectin4 clone F7 cells with high nectin-4 expression. […] The test articles were given at a single dose (2 mg/kg) formulated with 5% dextrose. Tumors were measured biweekly until Day 40."}, "[2]": {"system": "NCI-H1781 cells", "test": "Cytotoxicity of ADCs with other payloads and linker chemistry, low expression line", "assay_type": "cell-based", "details": "NCI H1781, 5 days, DAR 8", "protocol": "(§1) NCI-[…] cells were seeded in white clear-bottom 96-well tissue culture plates in culture medium (RPMI 1640+1× GlutaMax+10% Heat Inactivated Fetal Bovine Serum+1 mM sodium pyruvate). Cells were incubated at 37° C. with 5% CO2 overnight. Next day, ADCs were added at final working concentration from 100 nM, 1:4 serially diluted in culture medium. Plates were covered with Breathe-Easy® sealing membrane and incubated at 37° C. with 5% CO2. Plates were read after 5 days treatment using CellTiter-Glo Luminescent Cell Viability Assay. 100 ul/well CellTiter-Glo reagent were incubated in plates at room temperature for 10 min. Luminescence was read in the SpectraMax M5e. RLUs (Relative Light Units) were obtained with SoftMax […].4. Percentage of cell killing was calculated against no treatment as 0%. Data was graphed and analyzed using GraphPad Prism version 9.5.1. IC50 was determined via log(inhibitor) vs. response-variable slope (four parameters) curve fitting."}, "[3]": {"system": "MDA-MB-468 xenograft", "test": "Tumor xenograft, moderate nectin-4 expression", "assay_type": "in vivo, NSG mice", "details": "MDAMB468 xenograft, single dose 2 mg/kg, day 71", "protocol": "In a separate study, female NSG mice between 5-6 weeks of age were injected subcutaneously with MDA-MB-468 cells with moderate Nectin-4 expression. When tumors reached approximately 150-250 mm^3; animals were matched by tumor volume into treatment or control groups and dosing initiated (Day 0, n=8 per group). The test articles were given at a single dose (2 mg/kg) formulated with 5% Dextrose. Tumors were measured biweekly until Day 71.\nIn both models, a 2 mg/kg single dose treatment of either the nectin-4 ADCs (exemplified herein with each of Abs1-8 conjugated as in Formula XI, and with a DAR of 8) or benchmark enfortumab ADC (enfortumab conjugated with Formula XI, and with a DAR of 8) was used. Tumor growth was measured at day 40 for UMUC3 Nectin-4 clone F7 and day 71 for MDAMB468 xenografts."}, "[4]": {"system": "UMUC3-human nectin4 cloneF7", "test": "Cytotoxicity of ADCs with other payloads and linker chemistry, high expression line", "assay_type": "cell-based", "details": "UMUC3 Nectin-4 clone F7, 6 days, DAR 8", "protocol": "as §1, with “fitting. UMUC3 cell line was engineered to express human Nectin4 and clonally selected for high expression. UMUC3-human nectin4 cloneF7 engineered cell line was seeded in culture medium (MEM+1× GlutaMax+10% Heat Inactivated Fetal Bovine Serum+1 mM sodium pyruvate+500 μg/ml G418). ADCs were added at final working concentration from 100 nM, 1:4 serially diluted in culture medium for 6 days.” for “fitting.”"}}}
{"molecule": "B1", "values": [{"measurement": "Mean tumor volume", "setting": "[1]", "result": 72.57, "unit": "mm^3"}, {"measurement": "IC50", "setting": "[2]", "result": 0.0245, "unit": "nM"}, {"measurement": "Mean tumor volume", "setting": "[3]", "result": 124.95, "unit": "mm^3"}, {"measurement": "IC50", "setting": "[4]", "result": 0.0569, "unit": "nM"}]}
